The other results are listed elsewhere or left out.

T1: UNK ZnF1-3 (human, UniProt Q9C0B0 31-174)
T1 sequence: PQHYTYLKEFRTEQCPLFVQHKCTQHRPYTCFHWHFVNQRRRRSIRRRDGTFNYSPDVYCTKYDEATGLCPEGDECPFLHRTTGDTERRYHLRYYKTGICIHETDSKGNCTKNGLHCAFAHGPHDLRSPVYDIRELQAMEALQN

B1: chr11:95591783:95591784:-_ENSG00000087053_ENST00000352297|hu_hu|FALSE|FALSE (ssRNA)
RNA: GGGAGUUCUACAGUCCGACGAUCCUCAAAUAUGGAUCUUCUUGUCCGCCCCUCAGGUUUAUGAGCAAAUCGUAAAUUCCUAAUAUCCUUACACACAGUUUCUAGUCCAUAAGAAUUUUCACCUCGACUAGAAGCACCACCAAUCAACAGAGGAUUGAGCAUCA
B2: chr16:13687521:13687522:+_ENSMUSG00000022684_ENSMUST00000023365|mus_hu|FALSE|FALSE (ssRNA)
RNA: GGGAGUUCUACAGUCCGACGAUCGGCUGCAAGACUUUGGACUAUGUCAUUAUUCUGCUGAAUGUCUUCAAAUCUCAGUCUAAUGGCAUCAGGAAAUAACUUUUCAAUGGCAUCCCUGAGGAGAAUACUGACUUUGGGGAAACCCAACAGAGGAUUGAGCAUCA
B3: chr5:4806447:4806448:-_ENSMUSG00000028926_ENSMUST00000030763|mus_hu|FALSE|FALSE (ssRNA)
RNA: GGGAGUUCUACAGUCCGACGAUCAGCAUAAAAACCUUUACAGAGACGCUGUGCUGCAGAGGGAAAUCAAACAAAAUCAAACACAAAAGACUGAAAAGAAUACAUGCCAUGUAUCAGUAAGCAAAGCUUAAUCUUCACGUAGUUCAACAGAGGAUUGAGCAUCA
B4: 25244040_25248577_2582_CDS_ENSMUSG00000034295_ENSMUST00000037097|mouse|control|control (ssRNA)
RNA: GGGAGUUCUACAGUCCGACGAUCACACUGUCCAUUCACACCCACAUCCUGAAGGCUGGUGGACCACAAACCGGUCGCCCUGUCUUCAGACAGUUUGUCUUCCUUCUCUUCCCUCUCCAAGGUGCUGCUGGAGGACGAGAUGCUCAACAGAGGAUUGAGCAUCA
B5: 1005761_1005881_6397_CDS_ENSG00000060237_ENST00000535572|human|control|control (ssRNA)
RNA: GGGAGUUCUACAGUCCGACGAUCCAGCUCUAACUUUAAGUCUUCAUCUUCGAUAUCUGACUCAUUGUCGCUACUCAUGUAAGAGGAGUUAAAUGAAUUACUAAGGCUUUGACUUAGAUUCUGGCUAGGAAGGCUCUUUGAGCUCAACAGAGGAUUGAGCAUCA
B6: chr7:54823571:54823572:-_ENSG00000132432_ENST00000352861|hu_mus|hu_hu_hu_mus_False|58_98 (ssRNA)
RNA: GGGAGUUCUACAGUCCGACGAUCUCCCAUGAUAGCAAAUCCUAUUGCUGUAGCCAUGGCAAUCUUCUGGAAUUCUUUUCUAUCAGGUUUGGUGCAUCUUUUAACCAGCCGAAUUGAGUCCUUUACAAACUGCCGGCUGGGCUCCAACAGAGGAUUGAGCAUCA
B7: chr11:33163239:33163240:-_ENSG00000176102_ENST00000323959|hu_mus|motif|central (ssRNA)
RNA: GGGAGUUCUACAGUCCGACGAUCUCUGCCAGAACUGGGGAACUGGGCAACAAGGCGUUCGUAAGUCUUCCGUGCUUUGUCGGUAGGUUGAUUCUGUGCCUCUCGAAUGAGAAUGCUCCAAGCAUCAAGGUCAUAUGGAUUUUCCAACAGAGGAUUGAGCAUCA
B8: chr11:77376804:77376805:-_ENSG00000048649_ENST00000308488|hu_hu|FALSE|FALSE (ssRNA)
RNA: GGGAGUUCUACAGUCCGACGAUCAAUGAAUUUUAAUAGAAGUCUAAUGGCCAAAGGCCAAAACUACAUUCAAACUCUGCUAAUAUAUCCAGGCAGAUAGGAAAUUCCAACACACACACACACGCACACGCACACACACAAACACAACAGAGGAUUGAGCAUCA
B9: chr2:157388187:157388188:+_ENSMUSG00000067786_ENSMUST00000109526|mus_mus|FALSE|FALSE (ssRNA)
RNA: GGGAGUUCUACAGUCCGACGAUCUUUUGGUGGAGGUGGUCCCUGUCUCCAGGAGCUUACAAUCUAGCUGGGGAGACACUACUAAUGCACACUUAAACCAGUACAAUUAGCGACUACCACAAUAUUGACCACAACUGCUGCGUGCAACAGAGGAUUGAGCAUCA
B10: chr1:121442827:121442828:-_ENSMUSG00000026383_ENSMUST00000052404|mus_mus|FALSE|FALSE (ssRNA)
RNA: GGGAGUUCUACAGUCCGACGAUCAAACAACAAAUGAACAUGAUACCUGCCAAAUGAAAAGACAAGAAGCUUUCUUAGAAACUAUGUUCCCAGGUGUAGUGGCAUAGCCUUUAAUGAAGCACUCAGGAGGCAGAGGCAGGAGGACAACAGAGGAUUGAGCAUCA
B11: chr4:184596322:184596323:+_ENSG00000168538_ENST00000334690|hu_hu|FALSE|FALSE (ssRNA)
RNA: GGGAGUUCUACAGUCCGACGAUCCGCAUUUUGUGUAUCUUGUUUCAACUCACUGAAGAAAGCUAUUUUGAACUGAUGCCUAACAAAUAAAAGCUGGUGUGUUGUUUUAUUCAAAAAUUCUUUAUGAGAUUUCACUCUUCUGAUCAACAGAGGAUUGAGCAUCA
B12: chr7:65705844:65705845:+_ENSG00000169902_ENST00000304842|hu_mus|hu_hu_hu_mus_False|58_78 (ssRNA)
RNA: GGGAGUUCUACAGUCCGACGAUCAAACGGAUCUUUGUUACAUAAAUAAGGUGCCGGCUCCCCAUGCUUAACAAUGAUUUCUAGUAAGAAGGCUUGCAUGGCAGAAUCUAGCACUUCAUCUGUGACACCCGCCUCAUCCAAGCGCAACAGAGGAUUGAGCAUCA
B13: chr4:40680873:40680874:+_ENSMUSG00000028410_ENSMUST00000030118|mus_mus|motif|central (ssRNA)
RNA: GGGAGUUCUACAGUCCGACGAUCAUUCUGAUAUCCAGAUUUAAGCAUGUAAGCAUGUGACUUCAAAACAUACAACAAAUCGGUUCAUAAUUUGCUAUACUACCAACAUUAAAUUGCAGUUACGUUGGAGCCUAAGUCGAAUAGCAACAGAGGAUUGAGCAUCA
B14: chr12:36845622:36845623:-_ENSMUSG00000020547_ENSMUST00000020856|mus_hu|FALSE|FALSE (ssRNA)
RNA: GGGAGUUCUACAGUCCGACGAUCUGCCAUCCAUGCUUUGAAAAGCUUGACAGCAAAUGAGGCCGCAAUGCCUUCUUUGACUAAGCUGUCGGUGAAGAGACUGGUGAGGAUGGUGGCGGGCAGGGUGCCAUUGCCCAGCAGAAUCAACAGAGGAUUGAGCAUCA

For this assay, the target named is T1, UNK ZnF1-3. Kind of assay: nsRBNS (natural sequence RNA bind-n-seq); RBNS binding buffer (assumed for nsRBNS): 25 mM Tris pH 7.5, 150 mM KCl, 3 mM MgCl2, 0.01% Triton X-100, 500 ug/ml BSA, 20 U/ml SUPERase-In, 4 C; UNK is unkempt and MSI1 is Musashi-1; names of the RNAs are library labels; protein concentration not given here; high values mean tight binding.
On to B1, for which the binding signal turned out to be 1.05 enrichment R.
Next, B2: 0.931 enrichment R; B3: 1.97 enrichment R.
The molecule B4 came in with a binding signal of 0.892 enrichment R.
With B5, the binding signal was 0.79 enrichment R.
Molecule B6 came in with a binding signal of 0.765 enrichment R.
As for B7, the binding signal was 0.662 enrichment R.
As to B8, the binding signal came out at 1.93 enrichment R.
In turn, B9 displayed a binding signal of 1.2 enrichment R.
In the case of B10, the binding signal amounted to 1.12 enrichment R.
The molecule B11 gave a binding signal of 1.11 enrichment R.
In turn, B12 registered a binding signal of 0.445 enrichment R.
Molecule B13 displayed a binding signal of 0.477 enrichment R.
Consider B14, for which the binding signal was 1.01 enrichment R.

Values taken from PMC12136788.
